From PubChem BioAssay AID686979 (National Center for Advancing Translational Sciences (NCATS), 2013)
Among all 420,000 compounds or so, about 50,000 (12%) were called active. This list was built around the results that the source calls inconclusive (neither active nor inactive); the mix of calls is not that of the screen. The call rests on the fitted dose curve; in most records, active means well fitted inhibition curve with a large enough effect; inconclusive means small, poorly fitted or top-dose-only effect; inactive means flat fitted curve, though single readings scatter. No potency is given beside an inconclusive call; the fits are too rough.

Assay: qHTS for Inhibitors of human tyrosyl-DNA phosphodiesterase 1 (TDP1): qHTS in cells in presence of CPT; further: nearly all actives have a fitted effect of over 55% in size
Settings: chicken DT40 Tdp1-/-;hTDP1 cells + 20 nM CPT, ATP luminescence, 48 h; activity change, negative = growth inhibition: at 46.2 µM (top of the series)
Method in brief: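 Cell growth measured by CellTiter-Glo luminescence after a minimum 48 h, 37 C compound exposure with 20 nM CPT in Tdp1-knockout DT40 cells stably expressing hTDP1, seeded 400/well; qHTS titration format.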
On the % scale 0 is the no-effect control and ±100 the full control effect; potency means the concentration at half of the fitted maximal effect; tags describe the fitted curve by direction and shape.

SMILES | Potency | activity change, negative = growth inhibition
O=C(CN(c1cccc(Br)c1)S(=O)(=O)c1ccccc1)N1CCc2ccccc2C1 | active: 14.6 µM | –
Cc1cc(NC(=O)C2CCN(S(=O)(=O)Cc3ccccc3)CC2)ccc1-n1cnnn1 | inconclusive [inhibitor, partial curve] | –
O=C1NC[C@@H](Cc2ccc(O)cc2)N(CCc2cc(C(F)(F)F)cc(C(F)(F)F)c2)C1=O | inconclusive [inhibitor, single point] | –
COc1ccc(CC(=O)NCc2ccc(-n3cccc3)cc2)cc1OC | active: 2.31 µM | –
O=C(Nc1ccc(Br)cn1)C1CCCN1S(=O)(=O)c1ccccc1 (stereo not given) | inconclusive [inhibitor, single point] | –
Cc1ccccc1NC(=O)CCN1CCN(C/C=C/c2ccccc2)CC1 | active: 20.6 µM | –
Cc1ccc(C)c(OCCSc2nc3ccccc3n2CC(=O)N2CCOCC2)c1 | – | inactive: -22.1%
COc1ccc(N2C(=O)CC(Cc3ccc(Br)cc3)C2=O)cc1 (stereo not given) | inconclusive [inhibitor, partial curve] | –
CCOC(=O)c1c(C)[nH]c(C)c1S(=O)(=O)N1CCC(C(=O)NCc2ccccc2)CC1 | – | inactive: 0.283%
Cc1ccc(S(=O)(=O)N(C)CC(=O)OCC(=O)NCCc2ccc(S(N)(=O)=O)cc2)cc1 | inconclusive [inhibitor, partial curve, poor fit] | –
O=C(c1ccc(N2CCN(C(=O)c3ccccc3Br)CC2)cc1)c1cccc(F)c1 | active: 16.4 µM | –
Cn1c(=O)n(Cc2ccc(Br)cc2)c2ccccc21 | inconclusive [inhibitor, single point] | –
O=C(C1CCCN(S(=O)(=O)c2cccc3nsnc23)C1)N1CCN(c2ccccn2)CC1 (stereo not given) | inconclusive [inhibitor, single point] | –
Cc1ccc(CN2CCCn3nc(C(=O)NCCN(C)C)cc3C2=O)cc1 | – | inactive: -2.86%
COC(=O)c1c(NC(=O)CCCOc2ccc(C)cc2)sc2c1C(C(=O)OC)CC2 (stereo not given) | active: 14.6 µM | –
Cc1cc(NC(=O)c2cccc(S(=O)(=O)N3c4ccccc4CC3C)c2)no1 (stereo not given) | inconclusive [inhibitor, single point] | –
N=c1n(Cc2ccc(Cl)cc2)c2ccccc2n1CC(O)COc1ccccc1 (stereo not given) | inconclusive [inhibitor, single point] | –
COc1ccc(-c2ccc(NS(=O)(=O)c3ccc(F)c(C(F)(F)F)c3)cc2)nn1 | inconclusive [inhibitor, single point] | –
CC1C(=O)NN=C1C(=O)N/N=C/c1ccco1 (stereo not given) | inconclusive [inhibitor, single point] | –
COc1cccc(OCc2nc3ccccc3n2CCOc2ccccc2)c1 | inconclusive [inhibitor, single point] | –
O=C(c1ccc2c(c1)OCO2)C1CCCN(Cc2cccc(C(F)(F)F)c2)C1 (stereo not given) | inconclusive [inhibitor, single point] | –
O=c1ccn([C@@H]2O[C@H](COP(=O)(O)O)[C@@H](O)[C@H]2O)c(=O)[nH]1 | inconclusive [inhibitor, single point] | –
O=C(Nc1cccc(-c2csc(Nc3ccc(Cl)cc3)n2)c1)c1ccccc1 | active: 8.2 µM | –
Cc1nc(C(C)N(C)Cc2nc(-c3ccc4c(c3)OCO4)no2)c(C)s1 (stereo not given) | active: 23.1 µM | –

SMILES | Potency | activity change, negative = growth inhibition
Cc1ccc(CNC(=O)CCSCc2ccc(C)cc2)cc1 | – | inactive: 2.06%
COc1ccc(NC(=O)Cc2coc3cc(C)cc(C)c23)c(OC)c1 | active: 20.6 µM | –
Cc1nc2ccn(Cc3ccco3)c(=O)c2cc1C(=O)N1CCN(c2ccccc2F)CC1 | inconclusive [inhibitor, single point] | –
NC(=O)CSc1nnc(-c2cccc(S(=O)(=O)N3CCOCC3)c2)o1 | – | inactive: -6.32%
Cc1ccc(-c2cc(C(=O)N3CCN(c4ccc(F)cc4)CC3)c3ccccc3n2)o1 | inconclusive [inhibitor, single point] | –
O=C(NC1CCCCC1)N1CCN(c2nc(-c3ccccc3)cs2)CC1 | inconclusive [inhibitor, single point] | –
COc1ccccc1C(=O)NNC(=O)c1cccc(Br)c1 | – | inactive: -3.13%
COc1ccc(S(=O)(=O)N2CCCCCC2)cc1C(=O)N(C)CC(=O)Nc1cc(C)ccc1C | inconclusive [inhibitor, partial curve] | –
CC1(C)CC(=O)C=C(NCc2ccc(Cl)c(Cl)c2)C1 | inconclusive [inhibitor, single point] | –
COc1ccc(-n2c(=O)c(-c3cccs3)nc3cnc(N(C)C)nc32)cc1 | – | inactive: -20.4%
CC(C)C[C@H](NC(=O)[C@H](CCc1ccccc1)NC(=O)CN1CCOCC1)C(=O)N[C@@H](Cc1ccccc1)C(=O)N[C@@H](CC(C)C)C(=O)[C@@]1(C)CO1 | active: 0.0067 µM | –
COc1cccc(C2(O)CC(C(F)(F)F)=NN2C(=O)c2ccccn2)c1 (stereo not given) | inconclusive [inhibitor, single point] | –
Cc1ccc(S(=O)(=O)N2CCCC(c3nc4c(nnn4Cc4ccc(OC(F)(F)F)cc4)c(=O)[nH]3)C2)cc1 (stereo not given) | – | inactive: -6.43%
COc1ccc(/C=N/NC(N)=S)cc1OC(=O)c1cccc2ccccc12 | active: 14.6 µM | –
CCOc1ccc2nc(SCC(=O)NCc3ccc(OC)cc3)[nH]c2c1 | inconclusive [inhibitor, single point] | –
O=C(NNS(=O)(=O)c1ccccc1)c1cccc([N+](=O)[O-])c1 | – | inactive: 7.13%
Cc1cccc(N2CC(C(=O)OCc3ccc([N+](=O)[O-])cc3)CC2=O)c1 (stereo not given) | – | inactive: 6.66%
Cc1sc2nc(CN3CCCC3)nc(N3CCN(S(=O)(=O)c4cccc(F)c4)CC3)c2c1C | inconclusive [inhibitor, single point] | –
O=C(C1CC(=O)N(C2CCCC2)C1)N1CCN(c2ccccc2)CC1 (stereo not given) | – | inactive: -5.63%
COc1cc2cc(C(=O)NCCc3c[nH]c4ccccc34)c(N)nc2cc1OC | inconclusive [inhibitor, single point] | –
Cc1ccc(OCC(=O)N/N=C/c2ccc([N+](=O)[O-])o2)cc1 | active: 16.4 µM | –
O=C(CCC(=O)N1CCN(c2ccc(F)cc2)CC1)N1CCN(c2ccc(F)cc2)CC1 | inconclusive [inhibitor, single point] | –
CC(=O)Nc1ccc(/C=C/c2ccc3c([N+](=O)[O-])cccc3n2)cc1 | – | inactive: 6.46%
COc1ccccc1C(=O)NCCC(=O)N1CCN(S(=O)(=O)c2ccc(Cl)cc2)CC1 | – | inactive: 3.4%

SMILES | Potency | activity change, negative = growth inhibition
CCOC(=O)C1=C(C)N(C)C(=O)NC1c1c(O)ccc2ccccc12 (stereo not given) | inconclusive [inhibitor, single point] | –
CCN(CC)CC(=O)Nc1ccc2c(c1)Nc1ccccc1CC2 | inconclusive [inhibitor, single point] | –
CCCCCCNC(=O)CCNS(=O)(=O)c1ccc(C)cc1 | inconclusive [inhibitor, single point] | –
Cc1c(Cl)cccc1Nc1sc(C(=O)c2ccccc2)c(N)c1S(=O)(=O)c1ccccc1 | inconclusive [inhibitor, single point] | –
Cc1c(OC(C)C(=O)NCc2ccccn2)ccc2c3c(c(=O)oc12)CCCC3 (stereo not given) | active: 13 µM | –
Cc1ccc(CNC(=S)Nc2ccc3c(c2)c(=O)n(C)n3Cc2cccc(C(F)(F)F)c2)cc1 | active: 25.9 µM | –
COc1ccccc1NC(=O)N1c2ccc(F)cc2CCC1C (stereo not given) | inconclusive [inhibitor, single point] | –
CC(=O)Nc1ccc(/C=N/NC(=O)CCN2CCN(c3ccccc3)CC2)cc1 | – | inactive: -13.6%
O=C(CN(c1ccc(Cl)cc1)S(=O)(=O)c1ccccc1)N1CCN(c2ccccc2)CC1 | inconclusive [inhibitor, single point] | –
Cc1ccc2nc(/C(C#N)=C/c3cn[nH]c3-c3ccc(F)cc3)[nH]c2c1 | inconclusive [inhibitor, single point] | –
CN(C(=O)COC(=O)CCC(=O)c1ccccc1)c1c(N)n(Cc2ccccc2)c(=O)[nH]c1=O | – | inactive: -26.7%
CN(C)c1cccc(C(=O)OCC(=O)NCC2CCCO2)c1 (stereo not given) | – | inactive: -21.1%
Cc1cc(C(=O)N/N=C/c2c(C)[nH]n(-c3ccccc3)c2=O)n[nH]1 | active: 20.6 µM | –
Cn1c(N=Cc2ccc([N+](=O)[O-])cc2)c(N)c(=O)n(C)c1=O | inconclusive [inhibitor, partial curve, poor fit] | –
CSc1cccc(N2C(=O)N(Cc3ccc([N+](=O)[O-])cc3)c3ccccc3S2(=O)=O)c1 | – | inactive: -8.47%
CCOC(=O)c1c(C)[nH]c(C(=O)COC(=O)c2c(CC)noc2C)c1C | inconclusive [inhibitor, single point] | –
CC(OC(=O)C(C)Oc1ccccc1)C(=O)Nc1ccc(S(=O)(=O)N2CCCCC2)cc1 (stereo not given) | inconclusive [inhibitor, single point] | –
Fc1ccc2cnc(CCO[C@H]3CCCCO3)cc2c1 | – | inactive: -20.5%
COc1ccc(NC(=O)CC2C(=O)N(c3ccc(C)cc3)C(=O)N2CCc2ccccc2)cc1 (stereo not given) | active: 14.6 µM | –
CC1(C)c2ssc(=S)c2-c2ccccc2N1C(=O)CSC1=NCCS1 | inconclusive [inhibitor, single point] | –
COc1ccc(CC2(c3ccccc3)NC(=O)NC2=O)cc1 (stereo not given) | inconclusive [inhibitor, single point] | –
CC(=O)Nc1cccc(C(=O)Nc2ccc(S(=O)(=O)N3CCCCC3)cc2)c1 | inconclusive [inhibitor, single point] | –
